# Measured values: paper PMC4336329 (PLoS ONE, 2015)
# The whole screen tested about 310,000 compounds, of which about 14,000 (4.5%) showed an effect of 50% or more. Effects have a minus sign here. This is one part of the list.
# Biological target: human ether-à-go-go-related gene (hERG) potassium channel (human, UniProt Q12809)
# Assay: primary screen, population patch clamp on CHO cells stably expressing hERG
# 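Also: peak tail current of the secondary pulse compared with the same well before compound.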
# Chain of human ether-à-go-go-related gene (hERG) potassium channel (Q12809 whole entry, looked up): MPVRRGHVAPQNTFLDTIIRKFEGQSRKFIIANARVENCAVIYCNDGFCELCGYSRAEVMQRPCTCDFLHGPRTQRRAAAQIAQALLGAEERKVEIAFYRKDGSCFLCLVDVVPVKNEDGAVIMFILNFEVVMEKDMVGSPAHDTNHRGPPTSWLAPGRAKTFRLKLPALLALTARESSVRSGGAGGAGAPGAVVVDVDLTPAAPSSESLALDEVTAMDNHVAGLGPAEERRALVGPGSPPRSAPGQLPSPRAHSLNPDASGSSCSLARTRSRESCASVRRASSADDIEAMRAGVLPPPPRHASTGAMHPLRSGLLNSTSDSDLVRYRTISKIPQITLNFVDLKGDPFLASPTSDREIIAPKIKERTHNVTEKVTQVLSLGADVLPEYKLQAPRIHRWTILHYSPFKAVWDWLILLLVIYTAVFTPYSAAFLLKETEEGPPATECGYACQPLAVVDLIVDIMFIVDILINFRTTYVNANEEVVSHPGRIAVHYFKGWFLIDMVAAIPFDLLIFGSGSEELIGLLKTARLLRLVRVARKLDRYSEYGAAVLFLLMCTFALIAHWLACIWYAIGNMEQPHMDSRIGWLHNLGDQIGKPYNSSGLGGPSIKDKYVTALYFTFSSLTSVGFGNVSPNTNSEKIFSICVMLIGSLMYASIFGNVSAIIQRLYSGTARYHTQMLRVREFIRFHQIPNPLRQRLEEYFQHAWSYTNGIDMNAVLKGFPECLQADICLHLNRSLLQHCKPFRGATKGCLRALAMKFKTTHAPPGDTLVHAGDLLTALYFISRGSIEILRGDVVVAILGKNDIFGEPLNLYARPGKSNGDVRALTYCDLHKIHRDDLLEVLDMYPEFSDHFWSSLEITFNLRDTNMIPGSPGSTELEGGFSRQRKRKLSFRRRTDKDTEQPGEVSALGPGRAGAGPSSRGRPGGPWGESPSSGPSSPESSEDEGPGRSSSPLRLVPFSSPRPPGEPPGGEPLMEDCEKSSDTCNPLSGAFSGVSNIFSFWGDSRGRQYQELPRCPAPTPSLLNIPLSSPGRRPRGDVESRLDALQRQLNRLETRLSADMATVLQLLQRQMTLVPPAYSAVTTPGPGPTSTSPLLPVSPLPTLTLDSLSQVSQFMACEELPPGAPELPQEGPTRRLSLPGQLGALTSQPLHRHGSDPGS
row,Compound,"hERG current change (%, negative = inhibition) at 10uM"
1,CC1(C)CC(=O)C(C(N)=NC(=O)c2ccccc2)=C(O)C1,11.4%
2,CCCc1nc2ccccc2c(=O)n1CC(=O)c1ccccc1,-3.78%
3,Cc1nnc(SCC(=O)NC(C)(C)C)n1NCc1c(F)cccc1Cl,10.5%
4,Cc1ccc(C(=O)Nc2ccccc2C(=O)N2CCCCCC2)cc1,-1.97%
5,COc1cc(C(C(=O)NC2CCCCC2)N(Cc2ccco2)C(=O)c2cnccn2)cc(OC)c1OC (stereo not shown),21.4%
6,COc1cccc(C(=O)Nc2ccc(N(C)C)cc2)c1OC,16.2%
7,O=C(CC1Oc2ccccc2NC1=O)NCCCN1CCN(C2CCCCC2)CC1 (stereo not shown),-3.28%
8,COc1ccc(CCN(C)C(=O)c2cncc(Br)c2)cc1OC,30.1%
9,CC(C)Oc1ccc(CNC(=S)N/N=C/c2cccnc2)cc1,2.73%
10,CCOC(=O)Cc1c(Sc2ccccc2)c2cc(C)ccc2n1C,-6.46%
11,O=[N+]([O-])c1cccc(/C=N/Nc2nc(C(Cl)(Cl)Cl)nc3ccccc23)c1,0.843%
12,O=C(OC1CCCCC1=O)c1ccc(S(=O)(=O)Nc2ccccc2)cc1 (stereo not shown),0.644%
13,O=C(Cc1ccc(F)cc1)Nc1ccccc1Sc1ccccc1,1.73%
14,COc1ccc(Cl)cc1NC(=O)CN(C)C(=O)CCCc1c[nH]c2ccccc12,1.11%
15,COc1cc2nc(CN3CCC(C(O)(c4ccccc4)c4ccccc4)CC3)[nH]c(=O)c2cc1OC,-7.94%
16,Cc1cccc(NCc2ccccc2O)c1C,6.38%
17,COC(=O)C(C)Sc1nnc(Cc2cc(=O)[nH]c(=O)[nH]2)n1-c1ccc(OC)cc1 (stereo not shown),-0.588%
18,O=C(Nc1cccc([N+](=O)[O-])c1)C12CC3CC(C1)CC(n1cnc([N+](=O)[O-])n1)(C3)C2,-67.8%
19,O=C(CC1Nc2ccccc2NC1=O)Nc1ccccc1NC(=O)CC1Nc2ccccc2NC1=O (stereo not shown),4.83%
20,CCOC(=O)c1ccccc1NC(=O)c1ccc(N(C)S(C)(=O)=O)cc1,13.6%
21,COc1ccc(C(CNC(=O)C(C)Oc2ccc(Br)cc2)N2CCCC2)cc1 (stereo not shown),-37.2%
22,Nc1c(-c2ccc(Cl)cc2)cnn1-c1ccccc1,11.2%

row,Compound,"hERG current change (%, negative = inhibition) at 10uM"
1,COc1ccc(NC(=O)CSCC(=O)Nc2sccc2C#N)cc1,1.85%
2,CC(=O)Nc1cc(NC(C)=O)c(CC(C)C)s1,10.8%
3,CC(CNC(=O)CCS(=O)(=O)c1cc2c(cc1Cl)NC(=O)CO2)c1ccccc1 (stereo not shown),-3.94%
4,COc1ccc(C(=O)COC(=O)C(CCSC)NC(=O)COc2ccccc2)cc1 (stereo not shown),-31.2%
5,Cc1sc2nc(CSc3n[nH]c(N)n3)[nH]c(=O)c2c1C,-1.74%
6,O=C(COc1ccc([N+](=O)[O-])cc1)Nn1cnnc1,17%
7,Cc1cccc(OCC(=O)NCCCNC(=O)c2ccco2)c1,3.51%
8,COc1ccc(OC)c(S(=O)(=O)N2CCCC(C(=O)NCCN3CCOCC3)C2)c1 (stereo not shown),21.2%
9,c1ccc(CN2c3ccccc3-c3nc4ccccc4n3C2c2ccccn2)cc1 (stereo not shown),-6.27%
10,CN1CCN(S(=O)(=O)c2ccc(N(C)Cc3cccc(F)c3)nc2)CC1,-5.07%
11,C=CCOc1ccc(/C(O)=C2/C(=O)C(=O)N(CCCn3ccnc3)C2c2ccco2)cc1 (stereo not shown),23%
12,N#Cc1c(-c2ccccc2)cc(C2CC2)nc1SCC(=O)O,10.2%
13,O=C(CN1c2cccc3cccc(c23)S1(=O)=O)Nc1cccc(S(=O)(=O)N2CCOCC2)c1,-1.33%
14,O=C(/C=C/c1ccc(O)cc1)OCc1occc(=O)c1O[C@@H]1OC(CO)[C@@H](O)[C@H](O)[C@@H]1O (stereo partly shown),17.3%
15,Cc1ccc(NC(=O)CC(NCCN2CCOCC2)C(=O)O)cc1Cl (stereo not shown),14.3%
16,CCCCNC(=O)C(CC)Sc1nc2sc(C(=O)OC)c(C)c2c(=O)n1N (stereo not shown),-7.81%
17,O=C(N/N=C/c1ccc2c(c1)OCO2)c1ccc(COc2cccc3cccnc23)cc1,-18.6%
18,CCCCCCC1(C)NC(=S)N(c2ccccc2)N1 (stereo not shown),4.15%
19,Cc1nnc(SCCC(=O)Nc2ccc(Cl)cc2)o1,17.4%
20,CCN(CC)S(=O)(=O)c1cc(NC(=O)CNc2c(C)n(C)n(-c3ccccc3)c2=O)ccc1C,14.4%
21,C#CC(=O)N(c1ccc(OC)cc1OC)C(C(=O)NC1CCCC1)c1cccs1 (stereo not shown),-1.28%
